Results taken from PubChem BioAssay AID485313 (National Center for Advancing Translational Sciences (NCATS), 2010).
Screen size: about 320,000 compounds; about 7,600 (2.4%) were called active. Inconclusive means that the source gave no clear call. Such entries were picked first, then a sample of the others. Calls come from the whole dose curve; as a rule, active = well fitted activation curve with a large enough effect; inconclusive = small, poorly fitted or top-dose-only effect; inactive = no such curve, though single readings can be large or run the other way. Potencies of inconclusive entries are left out as doubtful fits.

Experiment: qHTS Assay for NPC1 Promoter Activators; note: nearly all actives have a fitted effect of over 60% in size;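 for activation: reporter is driven by a mutant NPC1 promoter; % of control where 0% means no effect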
Conditions: Huh7 NPC1 promoter luciferase reporter, 24 h; series mostly up to 9.22 µM; activation: at the top concentration
In short: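 Luciferase expression driven by the NPC1 promoter was measured in stably transfected Huh7 cells after a 24 h compound incubation, using a luciferase reagent and a luminescence read.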
Potency is the fitted concentration of half-maximal effect; tags give direction and shape of the fitted curve.

| SMILES | Potency | activation |
| --- | --- | --- |
| Nc1nc(N)nc(-c2ccc(Cl)cc2)n1 | inconclusive [activator, single point] |  |
| O=C(CSc1nc2ccccc2o1)Nc1ccc(N2CCOCC2)cc1 | inconclusive [activator, partial curve] |  |
| Cc1ccccc1Nc1ncnc2c1cnn2-c1ccccc1 | inconclusive [activator, partial curve] |  |
| O=C(CCSCc1ccccc1Cl)N1CCN(c2ccccn2)CC1 | inconclusive [activator, partial curve] |  |
| COc1ccccc1C(c1nnnn1Cc1ccccc1)N1CCC(C(N)=O)CC1 (centres undefined) |  | inactive: -2.37% |
| O=C(Nc1ccccc1F)C(=O)Nc1cccc2ccccc12 | inconclusive [activator, partial curve] |  |
| Cc1nc2c(C(=O)N3CCCCC3)cnn2c(C)c1Cc1ccccc1F | active: 1.58 µM |  |
| C/C(=N\NC(=O)c1ccccc1)c1ccc(N2CCCCC2)cc1 | inconclusive [activator, single point] |  |
| CC(=O)c1cccc(OCc2cc(C(=O)N(C)Cc3ccc(C)o3)no2)c1 | inconclusive [activator, single point] |  |
| Cc1cccc(S(=O)(=O)c2c(C)cc(C)nc2Cl)c1 |  | inactive: -1.19% |
| Cc1nc2cc(NC(=O)NCCC3=CCCCC3)ccc2o1 | active: 3.98 µM |  |
| Cc1ccsc1C(=O)OCC(=O)Nc1cccc(F)c1 |  | inactive: 7.29% |
| COc1ccc(/C(N)=N/OC(=O)CCCc2ccccc2)cc1OC |  | inactive: -1.06% |
| COc1ccc(NC(=O)CSc2ccc(C)cc2)cc1 | inconclusive [activator, full curve, poor fit] |  |
| CCc1ccc2oc(-c3cc(N=Cc4cccc(OC)c4O)ccc3O)nc2c1 | active: 4.47 µM |  |
| COc1ccc2nc(NC(=O)CSc3cn[nH]n3)sc2c1 | inconclusive [activator, partial curve] |  |
| CCc1ccc(CN2CCC(n3nccc3NC(=O)c3cccc(F)c3)CC2)cc1 |  | inactive: -5.61% |
| O=C(NC(=O)c1ccc(F)cc1F)Nc1ccc(Cl)cc1 | inconclusive [activator, partial curve] |  |
| CCCNC(=O)c1cc2cc([N+](=O)[O-])ccc2s1 |  | inactive: -1.54% |
| CCOC(=O)c1ccc(OS(=O)(=O)c2ccccc2)c(OC)c1 | active: 2.82 µM |  |
| CCC(C)C(=O)Nc1nnc(-c2cccs2)s1 (centres undefined) | inconclusive [activator, single point] |  |
| CC(=O)c1ccc(NC(=O)c2onc(C)c2Cl)cc1 | active: 1.41 µM |  |
| O=C(Nc1ccc2c(c1)Cc1ccccc1-2)c1cccnc1 | inconclusive [activator, partial curve] |  |
| Cc1ccc(C(=O)Oc2oc(-c3ccccc3)nc2C=Nc2ccc(N(C)C)cc2)cc1 | inconclusive [activator, single point] |  |
| C=CCNC(=O)N1CCCC(C(=O)c2cccc(OC(C)C)c2)C1 (centres undefined) | inconclusive [activator, single point] |  |
| CCN(CC(=O)Nc1ccc(NC(C)=O)cc1)C(=O)CSCc1c(C)noc1C |  | inactive: 1.56% |
| Cc1cc(C)c2sc(NC(=O)C3CC3)nc2c1 | inconclusive [activator, partial curve] |  |

| SMILES | Potency | activation |
| --- | --- | --- |
| COc1ccc(-n2ncc3c(NCCCN4CCOCC4)ncnc32)cc1 | inconclusive [activator, single point] |  |
| CN(CC(=O)NCCc1ccccc1)Cc1ccco1 | inconclusive [activator, partial curve] |  |
| O=C(Nc1ccc(NC(=O)C2CCCCC2)nc1)c1ccco1 | inconclusive [activator, single point] |  |
| COc1ccc(C(=O)Nn2c(SCC(=O)NCC3CCCO3)nc3ccccc3c2=O)cc1 (centres undefined) | active: 0.501 µM |  |
| Cc1ccc(C(=O)Nc2ccc(N3CCCC3)cc2)cc1 | inconclusive [activator, partial curve] |  |
| O=C(O)c1ccc(-c2ccc(OS(=O)(=O)c3ccccc3F)cc2)cc1 | inconclusive [activator, single point] |  |
| COc1ccc(-c2csc(N)n2)cc1F | inconclusive [activator, single point] |  |
| Cc1[nH]c2ccccc2c1/C=C/c1nc2ccccc2c(=O)[nH]1 | active: 3.16 µM |  |
| O=C(CNc1ccc2ccccc2c1)N/N=C/c1ccccn1 |  | inactive: 3.66% |
| CCN(CC)S(=O)(=O)c1cc(C(=O)Oc2cccc(-c3cnc4ccccc4n3)c2)ccc1OC | inconclusive [activator, single point] |  |
| Cc1cc(NC(=O)c2cc(-c3ccc(O)cc3)on2)no1 | inconclusive [activator, single point] |  |
| C/C(=N\NC(=O)COc1ccc(C(C)(C)C)cc1)c1ccc(OC(F)F)cc1 |  | inactive: 3.38% |
| CC(C)N(C)C(=O)C(=O)c1cccn1-c1cccc(Cl)c1C#N |  | inactive: -5.48% |
| CC(NS(=O)(=O)c1ccc2c(c1)oc(=O)n2C)c1ccccc1 (centres undefined) |  | inactive: 8.84% |
| CC(C)c1ccc(NC(=O)[C@@H]2CCC(=O)N2C2OC(=O)c3ccccc32)cc1 (some centres undefined) | inconclusive [activator, partial curve] |  |
| COc1cccc(-c2cc(C(=O)NCC3CCCO3)on2)c1 (centres undefined) | inconclusive [activator, single point] |  |
| Cc1ccc(NC(=O)n2ccc(-c3ccc(-n4ccnc4)cc3)n2)cc1 | inconclusive [activator, partial curve] |  |
| O=C(CSc1nnc2ccccn12)Nc1cccc(-c2nc3ccccc3s2)c1 | active: 3.55 µM |  |
| O=C(/C=C\c1ccco1)NC(=S)Nc1ccccc1O | inconclusive [activator, single point] |  |
| O=c1c2[nH]c3ccccc3c2ncn1CCC1=CCCCC1 | active: 2.51 µM |  |
| COc1cccc(NC(=O)C2COc3ccccc3O2)c1 (centres undefined) | inconclusive [activator, single point] |  |
| Cc1ccc(-c2cc(C(=O)NCc3ccccn3)no2)cc1 | inconclusive [activator, partial curve] |  |
| O=C(Nc1cccc(S(=O)(=O)N2CCCCC2)c1)c1cccs1 |  | inactive: -7.3% |
| Cc1ccsc1C(=O)Nc1ccc2c(c1)OCCO2 | active: 1.26 µM |  |
| CCc1ccc(/C=C2\Oc3c(ccc(O)c3CN3CCN(C)CC3)C2=O)cc1 | inconclusive [activator, single point] |  |
| O=C(O)CC(c1ccccc1)N1C(=O)c2cccc([N+](=O)[O-])c2C1=O (centres undefined) |  | inactive: -0.85% |
| COC(=O)c1ccc(CSc2nnc(NCc3ccccc3)s2)o1 |  | inactive: 5.86% |

| SMILES | Potency | activation |
| --- | --- | --- |
| Cc1ccc(C(=O)N(C)c2nnc(-c3ccncc3)s2)cc1 | inconclusive [activator, single point] |  |
| O=C(Nc1nccs1)C(Br)C(Br)c1ccccc1 (centres undefined) | active: 1.12 µM |  |
| COc1cccc(N=Nc2ccc3ccccc3c2O)c1 | inconclusive [activator, single point] |  |
| Cc1ccc2oc(/N=C(\N)NC(=O)C3CC3)nc2c1 | active: 0.631 µM |  |
| COc1ccccc1CNC(=O)CC12CC3CC(CC(Br)(C3)C1)C2 | inconclusive [activator, single point] |  |
| Cc1cccc(NC(=O)c2cccc(S(=O)(=O)N(C)c3ccccc3)c2)n1 |  | inactive: 11.9% |
| CCOC(=O)c1[nH]c2ccc(F)cc2c1NC(=O)CN1CCN(C/C=C/c2ccccc2)CC1 |  | inactive: -7.42% |
| COc1ccc2c(/C=N/Nc3ccc(C(=O)O)cc3)c[nH]c2c1 | active: 0.794 µM |  |
| CCOC(=O)c1sc(=NC(=O)COc2ccccc2)n(C)c1C | inconclusive [activator, partial curve] |  |
| COc1ccc(-c2cc(C(=O)N3CCN(c4ncccn4)CC3)c3ccccc3n2)cc1 | inconclusive [activator, single point] |  |
| Cn1ccc(C(=O)Nc2ccc(Br)cc2Br)n1 | active: 3.55 µM |  |
| Nc1ccccc1N=Nc1ccccc1N | active: 1.58 µM |  |
| CCC(C)NC(=O)c1ccc2c(Cl)c3c(nc2c1)CCC3 (centres undefined) | active: 2.82 µM |  |
| Cc1ccccc1OCC(=O)Nc1ccc2c(c1)ncn2C | active: 6.31 µM |  |
| Cc1ccc(SCC(=O)Nc2ccc3c(c2)OCCO3)cc1 | inconclusive [activator, partial curve] |  |
| Cc1ccc(OCC(=O)N2CCCCC2)c(Br)c1 | inconclusive [activator, single point] |  |
| Cc1ccc(OCCOc2ccc(Cl)cc2Cl)c([N+](=O)[O-])n1 | inconclusive [activator, single point] |  |
| CC1(C)CC(=O)c2cnc(N3CCc4ccccc4C3)nc2C1 | active: 2.82 µM |  |
| COc1ccc2nc(NC(=O)CCn3cccc3)sc2c1 | inconclusive [activator, single point] |  |
| COc1ccc(C[C@H](C(=O)O)N2C(=O)c3ccc(C(=O)O)cc3C2=O)cc1 |  | inactive: 1.34% |
| CCC(=O)Nc1ccc2c(c1)ncn2-c1ccccc1 | inconclusive [activator, partial curve] |  |
| O=C(O)CSc1c2c(nc3cc(C(=O)N4CCCC4)ccc13)CCCC2 |  | inactive: -3.56% |
| CN(c1ccccc1)c1nc2ccsc2c(=O)s1 | inconclusive [activator, partial curve] |  |
| S=C(NCCc1ccccc1)NN=C1CCCCCC1 | inconclusive [activator, partial curve] |  |
| CCOC(=O)c1c2ccccc2[n+]([O-])n1CCO |  | inactive: 4.6% |
